The full ranking holds about 33,000 sequences; the median of “E-score (-0.5 to 0.5)” is about -0.01, and the highest 2% start at about 0.26. This is one part of the list.
Each sequence was assayed against Ste12 (UniProt P13574) (assay: PBM E-score (8-mer binding enrichment) (E-score (-0.5 to 0.5)); higher = stronger / more preferred TF binding; most listed sequences are background and not binding sites). Conditions: protein concentration: 200 nM; construct: GST-DNA-binding domain.
How it was run: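 Yeast transcription factors, full-length or as DNA-binding domains, were expressed with a GST tag using PURExpress in vitro transcription/translation. At about 100-200 nM they were applied to universal all-10-mer Agilent arrays, double-stranded by primer extension on fresh or once-stripped slides. Fluorescent anti-GST detected bound protein, and masliner normalised the scans. E-scores for ungapped eight-base words, pooled with reverse complements, came from the Universal PBM Analysis Suite.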

Sequence	PBM E-score
ATCCCTCC	-0.0296
TAGCTTGA	-0.0554
TAGTGCGA	0.0187
CCCTCGCG	-0.0522
GACGAAGA	-0.139
ATAATTGA	0.206
CTGAGGGC	-0.236
ATAAATAT	0.172
CGGTATCC	-0.11
ACCACACT	0.0251
TTACCCAA	0.0694
CACAATCA	-0.0771
GGATACAC	-0.298
AGACGCAT	0.0588
CCATAAAG	-0.0569
ATCTTGCC	0.0302
ATCCGCAC	0.154
TCCTCGAA	0.0457
GAAAATTC	0.13
GACTTAGC	-0.146
ACTTGTAG	-0.111
ACCTCGGC	0.0975
ACAGTGCC	-0.0356
CGTAAGGC	-0.206
CGTTCGCC	-0.0565

Sequence	PBM E-score
CAGGGGAA	-0.0529
GAACCGCC	-0.0508
TCCCCGGA	-0.0463
CTAGTTTC	0.235
ACCCGAAT	0.0189
AATTTTTC	0.181
CGCACTCC	-0.0593
CTGATAAC	-0.00387
ATCTAAAA	0.285
CCTAATGC	-0.204
ACGGAGCC	-0.131
AGGCGTAC	-0.239
AACGGACA	0.00811
TAATACTA	0.144
ACTGACTG	-0.122
CTCAGTTC	-0.0827
AGGCACGG	-0.038
CACACCTG	0.00651
ATAATGAG	0.074
GCCTACCA	-0.148
ATCCCTTA	-0.0888
TCTTCAAA	0.194
CCATGCTA	-0.13
ATCTGTCG	0.106
GCCGTCTA	0.0432

Sequence	PBM E-score
CATGTTGA	0.212
GCATAGTA	0.147
AAGACGTG	-0.0629
AGATTGAT	-0.0801
AACCAGTA	0.0683
GTGCATGA	-0.0676
ACCATAGA	-0.00452
CTCATCGC	-0.0762
CGTCGATC	0.0822
CTAACAAA	0.0819
TACACACA	0.0194
GCTAACAA	-0.046
GGCGTGCA	-0.24
AAGTCTTA	-0.21
GTAACAAC	0.15
AAACTGAT	0.217
GTGTGATA	0.122
AGGTTTAT	0.191
TACCCTAA	0.172
GTGCAACA	-0.182
CGGGGAAA	0.272
TGCCATAA	-0.045
GAAGTAAC	0.227
CACTTACC	0.151
AGTAGAAA	0.297

Sequence	PBM E-score
CGATGTTA	0.0845
CCTGTGCG	0.0113
CAACTTAA	0.0143
AAGGAGCG	-0.0809
GACGTTAC	0.0153
GTCTGGAA	-0.0656
ATGATCGA	0.0887
ACGGATCC	-0.184
CAATGTGC	-0.133
GATATGCA	0.00486
AATTCACC	0.182
GATATCCC	0.0374
AAGATGGC	-0.0333
GCGACATA	-0.00576
AGGGTACC	-0.216
GATCGTAC	-0.118
AAGGTCCG	-0.06
GATTCGCC	-0.0424
CAGTTTCC	0.0749
CGCCAGTA	-0.0871
CCCTACAA	0.104
GGAGGGTA	0.116
TGGCCAAA	0.0505
ACCACCTC	-0.101
AGTCGTCA	-0.127

Sequence	PBM E-score
GGCAAAAA	0.346
AAAACGCG	0.285
AACATTTG	-0.0207
CTAGCTTC	-0.0909
ACATCTCT	0.0158
TACCAACA	0.0881
TCTGTGCA	-0.0103
TGGAGAAA	0.00653
GCCTGACA	-0.172
CTATCTAC	-0.166
CCAATCTA	0.148
AATCCCGC	0.209
AGTAAGTC	-0.162
CTTCCCTC	-0.0689
ACCTCCCT	0.0158
ACGCCACA	0.00496
CTGTAAAC	0.00821
TAGAGGGA	-0.0829
CGTATACC	-0.168
CGAATACG	0.00684
CAACCTCG	-0.0812
CGGCATCC	-0.0858
AAGCAGGT	0.0339
ACCGGAGC	0.0323
AGTTATAC	0.0403

Sequence	PBM E-score
ACCGAGAC	0.023
GAGCCGCC	-0.0855
CTGTCCCA	-0.0918
CTCGTCAA	-0.0254
GTTCGCGA	0.00152
ACTAAGAC	-0.214
AGATTACA	0.0641
GCTAAACC	-0.0644
GAGAGCAA	-0.114
AGCTTTAA	0.0779
GAATCGTA	-0.0071
CCTCAGCC	-0.173
GGTCAACC	-0.0374
AGAGGAGG	-0.166
ATACGCCA	0.154
CACGCCCA	-0.00122
CGGCGGGA	0.00826
AAGGAATA	0.0814
CAACCGTG	-0.181
CCCACATC	-0.0169
ACGAGTAC	-0.172
GAGGTGAA	0.0655
CCAAAGAG	0.147
TCGTATAA	0.0638
AAATAACC	0.0194

Sequence	PBM E-score
AATTTTGG	0.104
CCCTCCGG	-0.195
GGCCGAAC	-0.0163
CGTCGAAA	0.12
GCTTCAAC	-0.025
GCATGTCA	0.054
CTCATGGC	-0.0134
TAGCTATA	-0.037
GTTCCCGA	-0.024
GCCCTAAC	0.108
AAGGACTG	-0.0196
CTGATGCC	-0.189
CTTTCTCC	-0.142
CTAATCAC	-0.0504
ACTACATA	0.0675
GTCTCTAA	-0.0592
CCAAAGCC	-0.00501
CCGTCTAG	-0.238
ACACAGTC	-0.0563
AACCGCAA	0.0724
ATTGGACC	-0.111
ATTTGTCC	0.147
ATCAAGAG	0.0164
CAGCACCC	-0.201
GCTGGCAC	-0.231

Sequence	PBM E-score
ATGGAATC	0.0886
CTCACCAA	0.284
ACGTGCGA	-0.0195
AACCTCAT	0.0341
GCAACAGA	0.105
GGCTATAA	0.0888
AGATAGAT	-0.0472
ATCCTTAG	-0.167
ATCTCACG	-0.0754
ATCCCGCC	0.237
ACCACAGG	-0.19
ACCCGGAT	0.0819
CGGACCAG	-0.0842
ACACGGCG	0.0175
CAAAGCGC	-0.0374
CGCAATTC	0.0196
ACGCGTAA	-0.0603
AGGCTCAA	-0.306
ATGAATGG	0.33
GCATGCTA	-0.288
ACGACCCA	-0.00894
CGGCCACA	-0.122
GAACTTTA	-0.0478
CGGGCCTA	-0.107
GACGAGCC	-0.159

Sequence	PBM E-score
ATGTATAC	0.0553
CATTGATC	-0.0551
CATTTTCC	0.123
GGCACGCC	-0.313
CAAAAGGC	-0.0119
TTAAACAA	0.123
CATCCGGG	-0.0272
AATGAACA	0.0143
GTATACGA	0.122
GAATAGGA	0.126
ATCATCAT	0.0555
ACAGATAT	0.046
AAACTAAG	0.177
ACGTTTCG	0.297
CATCAAAA	0.221
GCCCGCAA	-0.12
AAAGGACT	-0.0451
GTTCGCCA	-0.119
ACACGCCA	0.00553
ACTCCCGC	-0.0261
ATGTAAAC	0.0539
CGGATCTA	0.0937
CTCTTACA	0.0491
CGGAGCAA	0.0115
TAGAGCGA	-0.0958

Sequence	PBM E-score
CCCCGACC	0.00951
CGGCAACA	0.219
AATAATGC	0.0962
CGTCACCA	-0.113
AAACCTGC	0.1
TACGCCTA	-0.192
AGAGTTTG	0.194
GGGTGTCA	0.0537
AGCTGTCC	-0.106
TACGAAAA	0.0919
ACTAAAAC	0.272
ACATGGCG	-0.274
ATAGGTAG	-0.131
AAGTTAAA	0.167
CCGCGACG	-0.0308
CTTCTGAA	0.256
ACGGGCTA	-0.245
GCTTGCAA	0.112
TAATCTCA	0.0346
AATTCTAC	0.0281
ACGATAAG	0.12
CCAGGGCC	-0.364
GGAATGGA	0.0113
AGACCGAG	-0.0414
GCGAATAA	0.0377

Sequence	PBM E-score
AAGTCCAG	-0.0966
AAAAAGAG	0.00475
CGGGACGA	0.0863
ACTTAAGC	-0.122
CTGAGAAC	0.0658
CAAATGTC	-0.0033
TCATTTCA	0.242
ATTGGCGC	-0.0374
CTGGGAAG	-0.113
AAAGGGCC	-0.136
CACTCGAC	-0.0692
ATGCACCC	-0.0626
AGCCCACA	-0.118
ACATGGAC	-0.00801
GGGGTATA	0.0753
CGGCATTC	0.00117
GGACAAAA	0.137
ACTGTCTG	-0.0281
AAATAGTA	0.0997
GTCAACAA	-0.0462
AGCCAGCC	-0.029
CCAAAACC	0.233
CAGATCCA	0.0637
CAGGTGAA	0.0581
CCAGCGAA	-0.0819

Sequence	PBM E-score
CGTGGGGC	-0.163
AAGCTAAT	0.0899
AGTTATCG	0.0444
CTGTGTAC	-0.126
ACCAACAT	0.125
GCCGCCTA	-0.179
CCGTACTC	-0.173
GGTCACCA	-0.278
CTATCGAG	-0.266
GCAGCACA	-0.124
GGCAGTAA	0.142
GCCGACAC	-0.0784
GAGGATTA	0.0342
GAACTTGC	-0.0993
CTTCGATA	0.0467
ACCCGGAG	0.0758
CATAAGAC	0.158
ATGGGTAG	-0.00405
TGACCGAA	0.0143
ACTGTAAA	0.194
AAACCAAA	0.255
CATGTACC	-0.073
GCCTGCCA	-0.136
AATGCTGT	-0.0241
AGGCTAAT	0.0389

Sequence	PBM E-score
CACGCTTA	-0.0966
CCCGAAAA	0.183
AGTGTGCC	-0.0376
CGGGGGTA	-0.0322
AACGCATT	0.118
ATCTTGAG	-0.0165
CAGGGCGA	-0.103
GGGACGAA	0.125
GGAGATAC	0.00973
CGTGACAA	0.215
CTTCCCGA	0.0932
CATCTTGA	-0.0295
ACTGACCG	0.0836
CAATGATG	0.058
CCCGGTGA	0.0547
GGATGGTA	-0.0271
GGACATTA	0.0628
ACGTAACC	0.0253
CGTCGCAG	0.0344
AGCCCAAC	-0.0608
AGTCATCA	-0.128
ATCGACTC	0.0417
GGTTCTGA	0.11
GCATGCGA	0.119
GCCGTGAC	0.0631

Sequence	PBM E-score
CGTTACGA	0.0942
ATAGGACG	-0.0881
AGCCACCT	-0.177
GGCTACCA	-0.221
ATGATTAG	0.0893
TGATAAAA	0.266
GATTTCAA	0.159
ATGGCCCA	-0.123
TAAAAGTA	0.211
AATCAAGA	0.222
CCCCTCCC	0.365
CCGAAACC	0.142
ACTCCATG	-0.121
CACGCTAG	0.0182
AACGGAAG	0.11
CCGTTCAA	0.0213
GTAATCCA	-0.129
AGAATCAA	0.0782
CGGCGTGC	-0.0575

Reference: the supplement of paper PMC3334620
